In the supplement of paper PMC4967469:
Lines with a small IC50 respond at low doses; where the fit passes the top or lowest dose, that dose stands as a limit. For AUC the same curve is integrated over the 256-fold range of doses and scaled to a fraction: 1 means no effect, lower means more sensitive. For some of these results: The top dose, if marked as inferred, was calculated from the reported fits.

Legend:
Assay in all cases: Viability of human cancer cell lines after 72 h of drug (GDSC screen)
XAV 939 = compound: Oc1nc(-c2ccc(C(F)(F)F)cc2)nc2c1CSCC2 [XAV 939]; settings: top dose 5 µM; top dose inferred
Description: (§1)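 Human cancer cell lines in 384-well plates, medium with 10% serum, drug for 72 h over a 256-fold dose range (nine 2-fold or five 4-fold steps up to the top dose). Adherent lines were fixed and stained with the nucleic acid dye Syto60, suspension lines read with resazurin; signal relative to control wells, capped at 0 and 100%. One two-parameter sigmoid per drug and line, fitted in a mixed model over all curves with the slope shared within a line.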

GSK-650394 = compound: O=C(O)c1ccc(-c2c[nH]c3ncc(-c4ccccc4)cc23)cc1C1CCCC1 [GSK-650394]; settings: top dose 16 µM; top dose inferred
Description: as §1

Etoposide = compound: COc1cc([C@@H]2c3cc4c(cc3[C@@H](O[C@@H]3O[C@@H]5CO[C@@H](C)O[C@H]5[C@H](O)[C@H]3O)[C@H]3COC(=O)[C@H]23)OCO4)cc(OC)c1O [Etoposide]; settings: top dose 16 µM
Description: as §1

AZD7762 = compound: NC(=O)Nc1cc(-c2cccc(F)c2)sc1C(=O)N[C@H]1CCCNC1 [AZD7762]; settings: top dose 2 µM
Description: as §1

BMS-345541 = compound: Cc1ccc2nc(NCCN)c3ncc(C)n3c2c1 [BMS-345541]; settings: top dose 16 µM
Description: as §1

Bexarotene = compound: C=C(c1ccc(C(=O)O)cc1)c1cc2c(cc1C)C(C)(C)CCC2(C)C [Bexarotene]; settings: top dose 8 µM
Description: as §1

NPK76-II-72-1 = compound: COc1cc(C(=O)NC2CCN(C)CC2)ccc1Nc1ncc2c(n1)N(C1CCCC1)C(C)CC(=O)N2C [NPK76-II-72-1]; settings: top dose 10.24 µM; top dose inferred
Description: as §1

Cell Line | AUC (XAV 939) | IC50 (XAV 939) [µM] | AUC (GSK-650394) | IC50 (GSK-650394) [µM] | AUC (Etoposide) | IC50 (Etoposide) [µM] | AUC (AZD7762) | IC50 (AZD7762) [µM] | AUC (BMS-345541) | IC50 (BMS-345541) [µM] | AUC (Bexarotene) | IC50 (Bexarotene) [µM] | AUC (NPK76-II-72-1) | IC50 (NPK76-II-72-1) [µM]
8505C (thyroid, adherent) | 0.983 | > 5 | 0.77 | 6.44 | 0.47 | 0.823 | 0.647 | 0.327 | 0.882 | > 16 | 0.877 | > 8 | 0.943 | > 10.2
A388 (skin, adherent) | 0.964 | > 5 | 0.708 | 4.25 | 0.608 | 2.07 | 0.84 | 1.69 | 0.889 | > 16 | 0.953 | > 8 | 0.982 | > 10.2
ATN-1 (T-cell lymphoblastic leukaemia, suspension) | 0.953 | > 5 | 0.916 | > 16 | 0.37 | 0.449 | 0.327 | 0.0428 | 0.432 | 0.66 | 0.755 | 2.55 | 0.509 | 0.674
AU565 (breast, adherent) | 0.98 | > 5 | 0.93 | > 16 | 0.657 | 2.87 | 0.724 | 0.589 | 0.882 | > 16 | 0.909 | > 8 | 0.911 | > 10.2
BB30-HNC (head and neck, adherent) | 0.923 | > 5 | 0.571 | 1.56 | 0.182 | 0.114 | 0.557 | 0.178 | 0.859 | 12.8 | 0.884 | > 8 | 0.919 | > 10.2
BE-13 (lymphoblastic leukaemia, suspension) | 0.975 | > 5 | 0.945 | > 16 | 0.368 | 0.445 | 0.613 | 0.25 | 0.79 | 6.64 | 0.95 | > 8 | 0.381 | 0.308
BT-474 (breast, adherent) | 0.97 | > 5 | 0.986 | > 16 | 0.955 | > 16 | 0.969 | > 2 | 0.887 | > 16 | 0.986 | > 8 | 0.964 | > 10.2
C2BBe1 (large intestine, adherent) | 0.984 | > 5 | 0.923 | > 16 | 0.928 | > 16 | 0.705 | 0.518 | 0.964 | > 16 | 0.963 | > 8 | 0.984 | > 10.2
CAL-27 (head and neck, adherent) | 0.908 | > 5 | 0.623 | 2.2 | 0.846 | 12 | 0.767 | 0.758 | 0.836 | 10.9 | 0.982 | > 8 | 0.891 | > 10.2
CAL-33 (head and neck, adherent) | 0.922 | > 5 | 0.765 | 5.85 | 0.427 | 0.631 | 0.635 | 0.296 | 0.881 | > 16 | 0.955 | > 8 | 0.869 | 9.45
CAL-62 (thyroid, adherent) | 0.958 | > 5 | 0.741 | 4.71 | 0.49 | 0.939 | 0.758 | 0.665 | 0.918 | > 16 | 0.922 | > 8 | 0.912 | > 10.2
CGTH-W-1 (thyroid, adherent) | 0.969 | > 5 | 0.606 | 1.95 | 0.163 | 0.0938 | 0.119 | < 0.00781 | 0.956 | > 16 | 0.933 | > 8 | 0.986 | > 10.2
CL-11 (large intestine, adherent) | 0.969 | > 5 | 0.986 | > 16 | 0.978 | > 16 | 0.81 | 1.22 | 0.974 | > 16 | 0.983 | > 8 | 0.987 | > 10.2
CP50-MEL-B (melanoma, adherent) | 0.983 | > 5 | 0.975 | > 16 | 0.988 | > 16 | 0.988 | > 2 | 0.926 | > 16 | 0.95 | > 8 | 0.944 | > 10.2
CW-2 (large intestine, adherent) | 0.988 | > 5 | 0.989 | > 16 | 0.98 | > 16 | 0.974 | > 2 | 0.868 | > 16 | 0.989 | > 8 | 0.971 | > 10.2
CaR-1 (large intestine, adherent) | 0.779 | 3.22 | 0.936 | > 16 | 0.752 | 7.89 | 0.868 | > 2 | 0.89 | > 16 | 0.893 | > 8 | 0.944 | > 10.2
DBTRG-05MG (glioma, adherent) | 0.982 | > 5 | 0.967 | > 16 | 0.626 | 2.38 | 0.775 | 0.933 | 0.892 | > 16 | 0.958 | > 8 | 0.917 | > 10.2
DJM-1 (skin, adherent) | 0.973 | > 5 | 0.948 | > 16 | 0.312 | 0.299 | 0.783 | 0.836 | 0.936 | > 16 | 0.928 | > 8 | 0.956 | > 10.2
DOK (head and neck, adherent) | 0.834 | > 5 | 0.976 | > 16 | 0.908 | > 16 | 0.737 | 0.857 | 0.879 | > 16 | 0.9 | > 8 | 0.976 | > 10.2

Cell Line | AUC (XAV 939) | IC50 (XAV 939) [µM] | AUC (GSK-650394) | IC50 (GSK-650394) [µM] | AUC (Etoposide) | IC50 (Etoposide) [µM] | AUC (AZD7762) | IC50 (AZD7762) [µM] | AUC (BMS-345541) | IC50 (BMS-345541) [µM] | AUC (Bexarotene) | IC50 (Bexarotene) [µM] | AUC (NPK76-II-72-1) | IC50 (NPK76-II-72-1) [µM]
DoTc2-4510 (cervix, adherent) | 0.969 | > 5 | 0.842 | 10.4 | 0.51 | 1.06 | 0.771 | 0.726 | 0.895 | > 16 | 0.933 | > 8 | 0.934 | > 10.2
ES1 (Ewing sarcoma, adherent) | 0.983 | > 5 | 0.78 | 6.49 | 0.288 |  | 0.617 | 0.261 | 0.897 | > 16 | 0.927 | > 8 | 0.695 | 2.23
ES6 (Ewing sarcoma, adherent) | 0.944 | > 5 | 0.766 | 7.3 | 0.849 | > 16 | 0.669 | 0.417 | 0.755 | 6.61 | 0.885 | > 8 | 0.844 | 10.1
ES8 (Ewing sarcoma, adherent) | 0.983 | > 5 | 0.703 | 3.55 | 0.219 | 0.164 | 0.497 | 0.123 | 0.855 | 11.3 | 0.937 | > 8 | 0.658 | 1.7
ESS-1 (endometrium, adherent) | 0.987 | > 5 | 0.845 | 9.87 | 0.419 | 0.616 | 0.559 | 0.178 | 0.944 | > 16 | 0.986 | > 8 | 0.99 | > 10.2
EW-24 (Ewing sarcoma, semi-adherent) | 0.991 | > 5 | 0.98 | > 16 | 0.973 | > 16 | 0.94 | > 2 | 0.983 | > 16 | 0.992 | > 8 | 0.968 | > 10.2
EoL-1-cell (haematopoietic neoplasm, suspension) | 0.983 | > 5 | 0.761 | 5.07 | 0.314 | 0.325 | 0.026 | < 0.00781 | 0.848 | 9.84 | 0.865 | 5.72 | 0.5 | 0.638
FADU (head and neck, adherent) | 0.982 | > 5 | 0.95 | > 16 | 0.545 | 1.32 | 0.603 | 0.237 | 0.917 | > 16 | 0.987 | > 8 | 0.978 | > 10.2
GRANTA-519 (B-cell lymphoma, suspension) | 0.968 | > 5 | 0.982 | > 16 | 0.59 | 1.71 | 0.594 | 0.22 | 0.845 | 9.88 | 0.984 | > 8 | 0.908 | > 10.2
H2795 (mesothelioma, adherent) | 0.926 | > 5 | 0.987 | > 16 | 0.863 | 13.5 | 0.598 | 0.231 | 0.862 | 13.4 | 0.899 | > 8 | 0.834 | 6.53
HCC-15 (lung squamous cell carcinoma, adherent) | 0.86 | > 5 | 0.91 | > 16 | 0.733 | 5.69 | 0.878 | > 2 | 0.9 | > 16 | 0.802 | 5.3 | 0.899 | > 10.2
HCC-56 (large intestine, adherent) | 0.986 | > 5 | 0.88 | > 16 | 0.84 | 11.4 | 0.715 | 0.515 | 0.905 | > 16 | 0.969 | > 8 | 0.884 | > 10.2
HSC-4 (head and neck, adherent) | 0.815 | 3.96 | 0.952 | > 16 | 0.584 | 1.83 | 0.487 | 0.114 | 0.892 | > 16 | 0.959 | > 8 | 0.971 | > 10.2
HT-115 (large intestine, adherent) | 0.991 | > 5 | 0.972 | > 16 | 0.859 | 11.4 | 0.973 | > 2 | 0.99 | > 16 | 0.988 | > 8 | 0.989 | > 10.2
HuP-T3 (pancreas, adherent) | 0.975 | > 5 | 0.94 | > 16 | 0.868 | > 16 | 0.503 | 0.128 | 0.891 | > 16 | 0.93 | > 8 | 0.926 | > 10.2
HuP-T4 (pancreas, adherent) | 0.869 | > 5 | 0.645 | 2.58 | 0.543 | 1.32 | 0.753 | 0.703 | 0.701 | 3.82 | 0.897 | > 8 | 0.842 | 7.85
IGR-1 (melanoma, adherent) | 0.99 | > 5 | 0.628 | 2.15 | 0.595 | 1.76 | 0.93 | > 2 | 0.725 | 3.96 | 0.947 | > 8 | 0.943 | > 10.2
JSC-1 (B-cell lymphoma, suspension) | 0.985 | > 5 | 0.865 | 13.9 | 0.411 | 0.571 | 0.53 | 0.151 | 0.804 | 7.88 | 0.973 | > 8 | 0.547 | 0.856
LB647-SCLC (small cell lung carcinoma, semi-adherent) | 0.983 | > 5 | 0.856 | 15.5 | 0.586 | 1.77 | 0.558 | 0.184 | 0.724 | 4.73 | 0.972 | > 8 |  | 
